Source: article PMC6586819
These are yes or no findings as the source states them, for the method shown. In cells and extracts the contact can be indirect. Some results given as binding are weak or reduced against the parent protein; the word gives no strength. For some assays here: Where a sequence is shown, tags or fusion partners need not be part of it.

Sequences of proteins named here, by UniProt entry; tags and fusion partners are left off.
UniProt P58462: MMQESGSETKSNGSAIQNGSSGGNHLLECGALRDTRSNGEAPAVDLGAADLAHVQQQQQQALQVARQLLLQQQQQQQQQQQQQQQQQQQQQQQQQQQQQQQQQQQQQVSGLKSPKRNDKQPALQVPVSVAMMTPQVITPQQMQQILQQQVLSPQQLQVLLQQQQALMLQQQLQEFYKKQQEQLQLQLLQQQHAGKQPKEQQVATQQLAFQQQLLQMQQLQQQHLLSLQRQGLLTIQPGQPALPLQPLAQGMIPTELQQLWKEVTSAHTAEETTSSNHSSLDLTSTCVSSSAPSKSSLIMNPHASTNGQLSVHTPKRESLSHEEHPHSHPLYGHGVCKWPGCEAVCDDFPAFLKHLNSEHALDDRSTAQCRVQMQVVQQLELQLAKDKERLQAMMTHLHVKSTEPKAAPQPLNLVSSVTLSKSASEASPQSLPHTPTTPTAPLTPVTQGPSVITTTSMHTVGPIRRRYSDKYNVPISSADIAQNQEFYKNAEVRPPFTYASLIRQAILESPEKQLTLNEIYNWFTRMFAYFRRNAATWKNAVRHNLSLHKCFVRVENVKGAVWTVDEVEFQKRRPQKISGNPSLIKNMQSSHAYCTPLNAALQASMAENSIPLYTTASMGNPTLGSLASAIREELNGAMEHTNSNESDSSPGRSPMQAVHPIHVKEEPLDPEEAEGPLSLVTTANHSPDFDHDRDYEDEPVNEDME
UniProt O15409: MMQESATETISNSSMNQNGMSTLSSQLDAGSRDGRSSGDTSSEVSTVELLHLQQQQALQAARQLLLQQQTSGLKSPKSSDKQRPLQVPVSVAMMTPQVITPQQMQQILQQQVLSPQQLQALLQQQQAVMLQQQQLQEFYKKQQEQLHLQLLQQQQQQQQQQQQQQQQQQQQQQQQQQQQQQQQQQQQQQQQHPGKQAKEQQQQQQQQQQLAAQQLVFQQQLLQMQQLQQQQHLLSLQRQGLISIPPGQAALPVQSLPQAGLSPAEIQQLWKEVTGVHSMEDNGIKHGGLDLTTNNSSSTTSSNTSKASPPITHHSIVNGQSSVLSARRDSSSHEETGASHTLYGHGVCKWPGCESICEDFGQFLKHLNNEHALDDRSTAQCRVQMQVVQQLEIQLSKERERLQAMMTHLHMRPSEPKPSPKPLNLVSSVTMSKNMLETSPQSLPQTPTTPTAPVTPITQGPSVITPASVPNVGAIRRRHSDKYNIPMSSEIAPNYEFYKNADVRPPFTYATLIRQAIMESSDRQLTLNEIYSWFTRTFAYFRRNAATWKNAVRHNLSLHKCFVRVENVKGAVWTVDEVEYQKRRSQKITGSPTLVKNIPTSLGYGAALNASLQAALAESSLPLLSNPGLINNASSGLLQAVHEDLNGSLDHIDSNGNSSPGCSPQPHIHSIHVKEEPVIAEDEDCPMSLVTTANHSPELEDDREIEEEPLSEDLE

B1: Flag-Foxp1 (protein, UniProt Q9H334 1-677)
chain: MMQESGTETKSNGSAIQNGSGGSNHLLECGGLREGRSNGETPAVDIGAADLAHAQQQQQQALQVARQLLLQQQQQQQVSGLKSPKRNDKQPALQVPVSVAMMTPQVITPQQMQQILQQQVLSPQQLQVLLQQQQALMLQQQQLQEFYKKQQEQLQLQLLQQQHAGKQPKEQQQVATQQLAFQQQLLQMQQLQQQHLLSLQRQGLLTIQPGQPALPLQPLAQGMIPTELQQLWKEVTSAHTAEETTGNNHSSLDLTTTCVSSSAPSKTSLIMNPHASTNGQLSVHTPKRESLSHEEHPHSHPLYGHGVCKWPGCEAVCEDFQSFLKHLNSEHALDDRSTAQCRVQMQVVQQLELQLAKDKERLQAMMTHLHVKSTEPKAAPQPLNLVSSVTLSKSASEASPQSLPHTPTTPTAPLTPVTQGPSVITTTSMHTVGPIRRRYSDKYNVPISSADIAQNQEFYKNAEVRPPFTYASLIRQAILESPEKQLTLNEIYNWFTRMFAYFRRNAATWKNAVRHNLSLHKCFVRVENVKGAVWTVDEVEFQKRRPQKISGNPSLIKNMQSSHAYCTPLNAALQASMAENSIPLYTTASMGNPTLGNLASAIREELNGAMEHTNSNESDSSPGRSPMQAVHPVHVKEEPLDPEEAEGPLSLVTTANHSPDFDHDRDYEDEPVNEDME
B2: Flag-MCRIP1 (protein, UniProt C9JLW8 1-97)
chain: MTSSPVSRVVYNGKRTSSPRSPPSSSEIFTPAHEENVRFIYEAWQGVERDLRGQVPGGERGLVEEYVEKVPNPSLKTFKPIDLSDLKRRSTQDAKKS

Assays:
[1] = target: endogenous Foxp1 (mouse lung) (mouse (endogenous in lung)) (UniProt P58462); experiment: co-IP; lung lysates from Mcrip1-/- mice; endogenous Foxp1 immunoprecipitated, co-precipitated CtBP1 detected by immunoblotting
[2] = target: endogenous Foxp1 (mouse lung) (mouse (endogenous in lung)) (UniProt P58462); experiment: condition: only in lung lysates from Mcrip1+/+ mice (endogenous MCRIP1 present); co-IP; lung lysates from Mcrip1+/+ mice (MCRIP1 present); endogenous Foxp1 immunoprecipitated, CtBP1 probed by immunoblotting
Myc-CtBP2 = Myc-CtBP2 (UniProt P56545); experiment: co-IP; U2OS cells transiently transfected; tagged CtBP1 or CtBP2 immunoprecipitated, protein G-sepharose, 4 °C; lysis buffer 20 mM Tris-HCl pH 7.5, 100 mM NaCl, 0.5% NP-40; without or with co-expressed MCRIP1 (increasing amounts of vector)

| Molecule | binding [1] | binding [2] | binding (Myc-CtBP2) |
| --- | --- | --- | --- |
| endogenous CtBP1 (mouse lung) (from UniProt O88712 1-441) | binds | no binding | – |
| Flag-Foxp2 (from UniProt O15409 1-715) | – | – | binds |
| B1 | – | – | binds |
| B2 | – | – | binds |
